Common to all, as to settings: 20 mM HEPES pH 7.9, 100 mM NaCl, 1 mM DTT, 0.2 mg/mL BSA, 0.02% Triton X-100, 2% milk, 0.4 mg/mL salmon testes DNA; 1 h; temperature not stated; high values mean tight binding; double strand, one strand shown; sequences stand for … in GCCTAGCAC…GTGCTAGGTCTTGATTCGCTTGACGCTGCTG
The target of one assay is PU.1 (IVT) (UniProt P17947). As to the kind of experiment: protein-binding microarray (PBM).
Assay [1] has as its target T1, FLI1 (endogenous, THP-1 nuclear extract) (UniProt Q01543).
T1 sequence: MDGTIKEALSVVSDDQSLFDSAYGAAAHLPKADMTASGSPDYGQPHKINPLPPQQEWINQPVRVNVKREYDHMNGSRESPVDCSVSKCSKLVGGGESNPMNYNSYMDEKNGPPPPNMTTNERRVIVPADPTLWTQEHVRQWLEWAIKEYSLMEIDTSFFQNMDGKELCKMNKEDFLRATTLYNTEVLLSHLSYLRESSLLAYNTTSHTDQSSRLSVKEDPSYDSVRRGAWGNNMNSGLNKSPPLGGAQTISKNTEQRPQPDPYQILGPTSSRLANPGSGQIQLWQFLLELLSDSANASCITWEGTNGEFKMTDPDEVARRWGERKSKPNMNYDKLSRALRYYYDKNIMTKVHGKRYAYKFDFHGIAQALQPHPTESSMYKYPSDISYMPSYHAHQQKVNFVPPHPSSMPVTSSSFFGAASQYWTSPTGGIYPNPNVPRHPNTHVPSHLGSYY
As to the kind of experiment: nuclear extract protein-binding microarray (nextPBM).

Assay [2] deals with PU.1 (endogenous, THP-1 nuclear extract) + IRF8 (endogenous, THP-1 nuclear extract). The description is as above.

The list shows a part of the results. For part of these data: At the low end of the ranking the order means little. For part of these data: Measured with an extract: partners may take part in the binding.

Regarding TAAAAGGAGAAGTGAAACTG, the results for the binding signal (with PU.1 (IVT); in assay [1]; in assay [2]) were 5.07 z-score, 3.23 z-score and 64.5 z-score, respectively.
The corresponding values for CTGCCAGCGAAGTGAAAGCA are -0.24 z-score, 0.262 z-score and 3.72 z-score.
For the sequence CTGGCAGGGAACTGAAATTC, the figures for the binding signal (in the assay with PU.1 (IVT); in assay [1]; in assay [2]) were 0.933 z-score, -0.392 z-score and -0.476 z-score, respectively.
Regarding CGGGCAGGGAACTGAAACTC, the binding signal in the assay with PU.1 (IVT) came out at 0.702 z-score; in assay [1], 0.234 z-score; in assay [2], 9.32 z-score.
For CAAAATGGGAAGTGAAACTA the same measures were 5.99 z-score, 3.1 z-score and 75 z-score.
With AGAAGAAGGAAGTGAAAGTG, the binding signal amounted to 4.45 z-score with PU.1 (IVT), 2.78 z-score in assay [1] and 34.2 z-score in assay [2].
The corresponding values for TAGTAGAGGAAGTGAAAGCA are 3.84 z-score, 2.9 z-score and 17.1 z-score.
For CTGCTAGGGAAGTGAAAGCA the same measures were 2.85 z-score, 1.26 z-score and 7.83 z-score.
Regarding GAAAAGAGGATGTGAAACTG, the results for the binding signal (with PU.1 (IVT); in assay [1]; in assay [2]) were 3.5 z-score, 3.49 z-score and 52.2 z-score, respectively.
As to GTATCAAGGAACTGAAACTC, the binding signal with PU.1 (IVT) was 0.722 z-score; in assay [1], 0.414 z-score; in assay [2], 10.4 z-score.
The corresponding values for GATAAGAGGAACTGAAAACT are 4.63 z-score, 1.76 z-score and 1.58 z-score.
The corresponding values for CCAGAAAGGAAGTGAAACTC are 2.59 z-score, 2.92 z-score and 33.5 z-score.
As for TAAAGGAGGAACTAAAACCA, the results for the binding signal (with PU.1 (IVT); in assay [1]; in assay [2]) were 4.4 z-score, 1.54 z-score and -0.0269 z-score, respectively.
For TGAAACACGAAGTGAAACCA the same measures were 0.17 z-score, 0.145 z-score and 32.2 z-score.
The corresponding values for GATATGAGGAACTGAAAGCT are 4.06 z-score, 1.38 z-score and 5.26 z-score.
For TGGCAGGGGAAGTGAAACTA the same measures were 3.71 z-score, 3.38 z-score and 54.6 z-score.
TTTGGAAGGAACTGAAACCA: the binding signal with PU.1 (IVT) was 0.887 z-score; in assay [1], 0.65 z-score; in assay [2], 16.1 z-score.
TATTTGGGGAAGTGAAACTG: the binding signal with PU.1 (IVT) is 5.32 z-score; in assay [1] it was 3.53 z-score; in assay [2] it was 73.1 z-score.
For ACTCATAGGAACTGAAAGTA the same measures were 0.775 z-score, 0.418 z-score and 8.14 z-score.
For GAGGGGAGGAACTGAAACTG, the figures for the binding signal (with PU.1 (IVT); in assay [1]; in assay [2]) were 1.11 z-score, 0.994 z-score and 19.8 z-score, respectively.
The corresponding values for TCGAGTGGGAAGTGAAAGTG are 2.65 z-score, 1.81 z-score and 15.3 z-score.
As for TGGCAGAGGAAGTGAAACAA, the figures for the binding signal (with PU.1 (IVT); in assay [1]; in assay [2]) were 2.98 z-score, 2.71 z-score and 9.6 z-score, respectively.
TAAAGGAGGAACTTAAACCA: the figures for the binding signal (in the assay with PU.1 (IVT); in assay [1]; in assay [2]) were 4.25 z-score, 1.56 z-score and -0.382 z-score, respectively.
In the case of TTGGGCAGGAACTGAAACCT, the binding signal with PU.1 (IVT) was found to be 0.802 z-score; in assay [1], 1.7 z-score; in assay [2], 9.02 z-score.
For GATAAGAGGAACTCAAAGCT the same measures were 3.68 z-score, 1.15 z-score and -0.102 z-score.
The corresponding values for CTGCCAGGAAAGTGAAAGCA are -0.646 z-score, 0.746 z-score and 8.37 z-score.
As to TAAAGGAGGAACTGAAACCT, the results for the binding signal (in the assay with PU.1 (IVT); in assay [1]; in assay [2]) were 3.48 z-score, 2.04 z-score and 28.6 z-score, respectively.
GATAAGAGGGACTGAAAGCT: the binding signal was -0.0466 z-score in the assay with PU.1 (IVT), -0.464 z-score in assay [1] and -0.375 z-score in assay [2].
GGAAAGAGGAAGAGAAACTG: the binding signal amounted to 4.4 z-score in the assay with PU.1 (IVT), 1.98 z-score in assay [1] and 14.9 z-score in assay [2].
For GAAATAAGGAAGTGAAACTC the same measures were 6.7 z-score, 3.93 z-score and 63.4 z-score.
For TAAAGGAGGATCTGAAACCA the same measures were 0.0832 z-score, 0.472 z-score and 9.19 z-score.
As to AAAAAAAGGAAATGTAAGTA, the values for the binding signal (with PU.1 (IVT); in assay [1]; in assay [2]) were 3.14 z-score, 1.86 z-score and -0.302 z-score, respectively.
For TGAGAGGAGAAGTGAAACTT, the figures for the binding signal (with PU.1 (IVT); in assay [1]; in assay [2]) were 1.52 z-score, 0.688 z-score and 34.8 z-score, respectively.
For the sequence TGAAACAGGAAATGAAACCA, the binding signal with PU.1 (IVT) was determined as 3.26 z-score; in assay [1], 5.57 z-score; in assay [2], 47.3 z-score.
For GTTAAAGGGAAGTGAAACTA the same measures were 4.13 z-score, 3.15 z-score and 68.8 z-score.
The corresponding values for TGAAACAGGAGGTGAAACCA are -0.646 z-score, 0.467 z-score and 5.25 z-score.
The corresponding values for GCTTTAAGGAACTGAAACTG are 2.65 z-score, 1.67 z-score and 28.5 z-score.
For GCCGGGAGGAAGTGAAACTC, the binding signal in the assay with PU.1 (IVT) is 3.13 z-score; in assay [1], 3.37 z-score; in assay [2], 42.7 z-score.
The corresponding values for TGGCAGAGGAACTGAAACTA are 1.47 z-score, 1.38 z-score and 35.3 z-score.
The corresponding values for TGAGTGGAGAAGTGAAACCT are 1.09 z-score, -0.0974 z-score and 23.5 z-score.
For the sequence TGAGAGGAAAAGTGAAACCT, the binding signal with PU.1 (IVT) was -0.416 z-score; in assay [1], 0.841 z-score; in assay [2] it was 25.8 z-score.
The corresponding values for TGGCAGAGGAAGCGAAACTA are 1.32 z-score, 2.31 z-score and 61.2 z-score.
The corresponding values for TAGAAGAGGAAGAGAAACTT are 2.69 z-score, 1.51 z-score and 2.89 z-score.
The corresponding values for CAAAGTGGGAACTGAAACTT are 2.37 z-score, 1.1 z-score and 16.1 z-score.
For the sequence CTGCCAGGGAAGTGAGAGCA, the binding signal came out at 1.15 z-score with PU.1 (IVT), 0.617 z-score in assay [1] and 0.528 z-score in assay [2].
For the sequence CTGCCACGGAAGTGAAAGCA, the values for the binding signal (with PU.1 (IVT); in assay [1]; in assay [2]) were 0.972 z-score, 2.64 z-score and 4.82 z-score, respectively.
For GTTTTGAGGAACTGAAACTC the same measures were 4.5 z-score, 2.71 z-score and 43.3 z-score.
In the case of GATAAGACGAACTGAAAGCT, the binding signal was -0.182 z-score with PU.1 (IVT), -0.683 z-score in assay [1] and 0.361 z-score in assay [2].
For AAAAAAAGGATATGAAAGTA the same measures were 0.953 z-score, 1.27 z-score and 11.7 z-score.

These data come from article PMC6451091.
